Over roughly 33,000 sequences, “E-score (-0.5 to 0.5)” has its median near -0.021; the highest 2% begin near 0.32. This is one part of the list.
molecular target: T1, Zap1 (UniProt P47043); assay: PBM E-score (8-mer binding enrichment) (E-score (-0.5 to 0.5)); higher = stronger / more preferred TF binding; most listed sequences are background and not binding sites; settings: protein concentration: 200 nM; construct: GST-full length
T1 sequence: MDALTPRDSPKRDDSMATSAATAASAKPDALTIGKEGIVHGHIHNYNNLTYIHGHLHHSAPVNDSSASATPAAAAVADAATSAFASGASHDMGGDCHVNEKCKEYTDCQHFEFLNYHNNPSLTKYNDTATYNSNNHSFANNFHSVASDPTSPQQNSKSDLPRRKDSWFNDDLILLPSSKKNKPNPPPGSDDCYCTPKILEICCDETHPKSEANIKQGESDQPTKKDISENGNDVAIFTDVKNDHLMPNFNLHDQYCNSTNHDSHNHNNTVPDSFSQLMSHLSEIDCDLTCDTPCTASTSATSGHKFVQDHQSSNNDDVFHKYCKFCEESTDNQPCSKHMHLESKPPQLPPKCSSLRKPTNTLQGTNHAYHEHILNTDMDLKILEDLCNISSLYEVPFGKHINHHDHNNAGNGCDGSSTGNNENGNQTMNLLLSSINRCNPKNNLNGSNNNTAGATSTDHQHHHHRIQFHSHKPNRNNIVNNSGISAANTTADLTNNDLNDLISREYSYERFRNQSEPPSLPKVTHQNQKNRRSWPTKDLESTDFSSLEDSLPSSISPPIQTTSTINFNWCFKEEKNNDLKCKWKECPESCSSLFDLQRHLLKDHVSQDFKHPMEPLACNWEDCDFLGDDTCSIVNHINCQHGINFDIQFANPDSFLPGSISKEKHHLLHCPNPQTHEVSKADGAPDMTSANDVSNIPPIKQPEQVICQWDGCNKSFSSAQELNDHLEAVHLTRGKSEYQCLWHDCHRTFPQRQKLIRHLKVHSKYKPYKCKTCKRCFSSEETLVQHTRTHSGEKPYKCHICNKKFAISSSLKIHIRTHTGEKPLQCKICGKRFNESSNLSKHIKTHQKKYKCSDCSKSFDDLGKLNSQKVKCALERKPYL
How it was run: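 Yeast transcription factors carrying a GST tag, as full-length proteins or DNA-binding domains, were produced by PURExpress in vitro transcription/translation. About 100-200 nM protein was applied to universal all-10-mer Agilent arrays, double-stranded by primer extension on fresh or once-stripped slides. Bound protein was detected with fluorescent anti-GST, and scans were normalised with masliner. The Universal PBM Analysis Suite gave each ungapped eight-base word, pooled with its reverse complement, an E-score, a modified Wilcoxon-Mann-Whitney statistic.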

Row | Sequence | PBM E-score
1 | AAAGACCA | -0.0435
2 | TTCAGGAA | -0.0901
3 | CTTGCCAA | 0.00969
4 | CAGCTCCC | -0.42
5 | GGTGACGA | 0.145
6 | GAACCTCC | 0.038
7 | ATTAAACA | 0.114
8 | AATATCTA | -0.239
9 | CACTACAC | 0.0116
10 | TAACCGGA | 0.364
11 | CTTTGGCC | -0.065
12 | CGTTTGGA | 0.0241
13 | CGGGCATA | -0.0176
14 | AAGCTGCG | -0.191
15 | TCAACCAA | 0.118
16 | AATGAGAC | -0.0476
17 | TGATGTAA | -0.049
18 | ACCTTGAT | 0.325
19 | GTGGTTCA | 0.0364
20 | GAGTAAAC | 0.0886
21 | ATTACGTA | 0.0941
22 | AGCTCGGG | -0.123
23 | GTTAGAAC | 0.154
24 | AATCAGTA | -0.0224
25 | GCGATGTA | -0.00072

Row | Sequence | PBM E-score
26 | AATGCTTC | -0.148
27 | AGTACCAG | 0.173
28 | GGACGTGA | -0.201
29 | ACCTCTGC | -0.0418
30 | AGTCTGTG | -0.159
31 | AGCATTCC | -0.228
32 | CAAACCTA | 0.166
33 | CTTTTTTA | 0.208
34 | CAACATAG | -0.103
35 | ACCTACTA | 0.113
36 | TTACCGAA | 0.231
37 | ATTATGCG | 0.154
38 | ATAGGATC | -0.0267
39 | TGATATCA | -0.0863
40 | GCTTACCA | 0.0792
41 | CTATCACA | -0.024
42 | ACTGTGAG | 0.119
43 | AATGTGGG | -0.049
44 | ACTGGCCC | -0.0297
45 | CCAGGGGG | -0.095
46 | CCGGGGTA | 0.212
47 | GCGAACAA | 0.275
48 | GCGTCTCA | -0.0752
49 | AACAGGGC | -0.0745
50 | ACCGCCCA | 0.0109

Row | Sequence | PBM E-score
51 | AAGAGACA | -0.00205
52 | CTCAAATC | -0.15
53 | CCACGGCC | -0.0782
54 | AACCAAAG | 0.26
55 | GATCCAGC | -0.216
56 | AAAGAAAC | 0.152
57 | ATTCTGGC | -0.0503
58 | AAAAATCC | -0.0127
59 | ACGTGAAG | -0.0826
60 | ATGAGCAC | -0.101
61 | CCACGTAC | -0.0507
62 | CAGCGAGA | -0.173
63 | AGCTATAA | 0.162
64 | CGGGGAAG | -0.15
65 | CCAAGACC | 0.00186
66 | CTTTTTCA | 0.178
67 | ATCGTTCA | 0.092
68 | AGATATAA | 0.169
69 | CTAAAGAC | -0.0654
70 | AGGGAACG | -0.179
71 | AACCTATT | 0.281
72 | ACTGATTG | -0.0958
73 | CCCTAAGA | 0.263
74 | ATCCACCC | -0.023
75 | ACCTGGCG | -0.0533

Row | Sequence | PBM E-score
76 | TCAGTGAA | 0.0126
77 | CCATGATC | 0.106
78 | GGCCTAAC | 0.0974
79 | CAACTGCC | -0.151
80 | GCTAGGGA | 0.0294
81 | AGATGCAC | -0.281
82 | CAAAGTCA | 0.0434
83 | CTTGCCGC | -0.132
84 | CTATTCGA | -0.0524
85 | GAAGCTTC | -0.265
86 | GAATTCAA | 0.0163
87 | GGCATCCA | -0.107
88 | CCGAGGTA | 0.242
89 | GGTTAGCA | 0.287
90 | AAAAATGC | -0.0632
91 | AAGCATTG | -0.266
92 | GAACGGAC | -0.203
93 | AGCCTTAA | -0.0565
94 | AGGAGATC | 0.00265
95 | AACAAGTG | -0.0556
96 | AAGGGTAC | 0.426
97 | GTGGAGCA | -0.141
98 | AATCTTCA | 0.16
99 | CGACCCAC | 0.23
100 | AGGAAGCC | -0.212

Row | Sequence | PBM E-score
101 | AGTATTCC | -0.0642
102 | GCTCCGAA | 0.0279
103 | CAGCACTA | -0.136
104 | TGTCCACA | 0.203
105 | TATTTGCA | 0.0343
106 | AAGTATTG | 0.0209
107 | CCCAGTTC | 0.138
108 | GGAGCCGA | -0.0801
109 | GTGTTTGA | 0.216
110 | ACACTGAT | -0.0013
111 | ATGGCGCA | -0.0985
112 | CGATCGAA | 0.00527
113 | AATCCGCG | -0.146
114 | ACTATTTA | 0.0954
115 | CCTACCCG | 0.167
116 | CCAGTACC | 0.183
117 | GAGTAGTA | 0.0341
118 | CACATAGC | -0.136
119 | AGCCGGGG | -0.27
120 | AGCTATGC | -0.179
121 | CAATGGCA | 0.0406
122 | CATCTGAC | -0.21
123 | CTACTTAC | -0.0894
124 | GCCGAACC | -0.067
125 | GGTGGGAC | -0.246

Row | Sequence | PBM E-score
126 | AACAATTA | 0.156
127 | AATTCTGT | -0.0667
128 | AACTATCC | -0.0465
129 | ATTACACC | 0.117
130 | CTACGCAC | -0.157
131 | CGTTACAC | 0.0157
132 | GCGTTTCA | -0.179
133 | GGTGTCCA | 0.211
134 | ACTGAAAG | 0.13
135 | CCCTTGGA | 0.217
136 | CCAGCGTA | -0.109
137 | AGTCGCCG | -0.116
138 | AAGTTGTC | 0.13
139 | CAGCTCGA | -0.112
140 | GAAATCAC | 0.105
141 | AAAATTCT | -0.0767
142 | CTGTTCCC | -0.135
143 | CGGGGATC | -0.225
144 | AGTACACG | -0.107
145 | AGAAACGG | 0.0285
146 | GCTGATTA | 0.114
147 | GACGCGTA | -0.0999
148 | GGTAACAA | 0.38
149 | CATACTAC | 0.187
150 | TACCTGCA | 0.192

Row | Sequence | PBM E-score
151 | CACTCGGA | -0.0236
152 | ACCCCGCT | 0.135
153 | CCAGTTGA | -0.159
154 | GAGAAAGC | -0.0701
155 | GATAGATC | -0.126
156 | AACCACGT | 0.125
157 | ACTCCTGA | -0.0864
158 | ATGTGGTC | 0.0865
159 | TAAGTGCA | -0.0417
160 | AATCATAA | 0.136
161 | CCGCTACC | 0.252
162 | GATAGGGA | -0.0655
163 | ACCCAAAT | 0.306
164 | AGACACTA | 0.0913
165 | ATGTCCCA | -0.138
166 | GGATGCTA | -0.258
167 | ATTCCAAG | 0.0261
168 | ATGCTCAC | -0.16
169 | CCTTCGCC | -0.217
170 | ATTCGCGG | 0.202
171 | ACATCTCC | -0.123
172 | AAGTCTAA | 0.0161

Reference: the supplement of paper PMC3334620
